For 88 compounds, survival results are on record in PubChem BioAssay AID463173 (ICCB-Longwood Screening Facility, Harvard Medical School, 2010).

The whole screen tested about 52,000 compounds, of which about 1,700 (3.3%) were called active. Rule as the data show it: active = survival mostly below about 52% (no sharp cut-off); inactive = mostly above about 56%. The list shows a part of the results.

This experiment concerns Wild type. Kind of experiment: growth inhibition of S. aureus wild type versus tarO mutant, primary screen, teichoic acid synthesis inhibitors, RN4220, OD600 (AID 463173). The settings on record: S. aureus RN4220 wild type/DeltatarO growth, OD600, 18 h, stronger effect = lower value, screened at 18.75 µg/mL (by protocol).
Take `CCOC(=O)c1c(NC(=O)CS(=O)(=O)c2ccc(C)cc2)sc2c1CCCCC2`: the survival was inactive: 87%.
The result for `COc1ccc(CNc2ncnc3onc(C)c23)cc1` reads inactive: 91%; that for `COc1ccc(NC(=O)Cn2c(=O)oc3cc(S(=O)(=O)NC4CCCC4)ccc32)cc1OC`, inactive: 78%.
Take `CCCNC(=O)c1ccc2c(c1)ncn2-c1ccc(C)cc1C`: the survival is inactive: 59%.
The result for `CN(C)CCNC(=O)c1ccc(-n2c(-c3ccccc3)cc3c2CCCC3)cc1` reads inactive: 29%; that for `CCc1ccc(CNC(=O)c2ccc3c(c2)N=C(C)c2cc(C)ccc2S3)cc1`, inactive: 93%.
As for `Cn1c(=O)c2c(SCC(=O)N3CCc4ccccc43)nc(-c3ccccc3Cl)nc2n(C)c1=O`, the survival was inactive: 85%.
The result for `Cc1nc(-c2ccccc2)sc1-c1ccc(SCC(=O)NCc2ccc(F)cc2)nn1` reads inactive: 98%.
Then `Cc1ccc(-c2nc3cccnc3s2)cc1NC(=O)C(C)C`, with inactive: 116%; and `Cc1ccc(-c2ccc(=O)n(Cc3cc(C)ccc3C)n2)cc1`, with inactive: 92%; and `CC1=Nc2cc(C(=O)NCCc3ccc(Cl)cc3)ccc2Sc2ccc(C)cc21`, with inactive: 80%.
Consider `CCC(CC)C(=O)NC1CC(=O)N(c2ccc3c(c2)OCCO3)C1` (stereo not drawn), for which the survival is inactive: 135%.
Then `Cc1ccc(C(C)C)c(OCC(=O)Nc2cccc(NC(=O)c3ccco3)c2)c1`, with active: 12%.
For `CCOc1ccc(-n2c(SCC(=O)N3CCCC3)nc3c([nH]c4ccccc43)c2=O)cc1`, the survival is inactive: 73%.
Then `COC(=O)C(Cc1c[nH]c2ccccc12)NC(=O)COc1ccc(Cl)cc1Cl` (stereo not drawn), with inactive: 54%.
The result for `O=C(CSc1nc2ccccc2c(=O)n1-c1ccccc1)N1CCOCC1` reads inactive: 104%; that for `CCOc1ccc(-n2c(CCC(=O)O)ccc2-c2ccc(Br)cc2)cc1`, inactive: 77%; that for `CCN(c1cc(C)cc(C)c1)S(=O)(=O)c1nnc(NC(=O)c2cccs2)s1`, inactive: 23%.
Then `CCc1ccc(CNC(=O)CCSCc2ccccc2F)cc1`, with inactive: 70%; and `Cc1cccc(NS(=O)(=O)c2ccc3[nH]c(=O)ccc3c2)c1C`, with inactive: 101%; and `COc1cc(NC(=O)Cn2c(=O)oc3cc(S(=O)(=O)N4CCCCCC4)ccc32)cc(OC)c1`, with inactive: 80%.
`Cc1oc2ccc(O)c(CN(C)Cc3ccccc3)c2c1C(=O)Nc1cccc(C(F)(F)F)c1`: the survival was active: 10%.
Take `COc1ccccc1OCCn1c(-c2ccc(Cl)cc2)nc2ccccc2c1=O`: the survival was inactive: 77%.
Regarding `COc1ccc(C(=O)c2cn(CC(=O)Nc3ccc4c(c3)OCCO4)c3ccc(OC)cc3c2=O)cc1`, the survival was inactive: 92%.
In the case of `CCN(C(=O)Cc1nc(-c2ccc(OC)cc2)no1)c1cccc(Cl)c1`, the survival is inactive: 84%.
For `O=C(Cn1c(=O)nc(-c2ccccc2)c2ccccc21)Nc1ccc(Cl)c(C(F)(F)F)c1`, the survival is inactive: 73%.
`O=C(CSc1nc(-c2ccccc2)no1)N1CCN(c2ccccc2F)CC1`: the survival is inactive: 69%.
Then `COc1cccc(C2=CC(c3ccc(OC)c(OC)c3OC)n3ncnc3N2)c1` (stereo not drawn), with inactive: 119%.
The result for `COc1cc(C2c3c(oc4ccccc4c3=O)C(=O)N2c2nncs2)cc(OC)c1OC` (stereo not drawn) reads inactive: 76%; that for `Cc1cccc(-c2cc(NC(=O)C(C)(C)C)n(-c3ccccc3)n2)c1`, inactive: 78%; that for `COc1ccc(C(CC(=O)Nc2cccc(C)c2C)N2Cc3ccccc3C2=O)cc1` (stereo not drawn), inactive: 68%.
Turning to `CCC1CN(C(=O)N2CCC(C(=O)Nc3cc(C)ccc3C)CC2)c2ccccc2O1` (stereo not drawn), the survival was inactive: 108%.
As for `CCOc1ccc(-c2cn3c(n2)sc2cc(C(=O)NCCCc4ccccc4)ccc23)cc1`, the survival is inactive: 96%.
The result for `Cc1nc2nc(SCc3ccc(F)cc3Cl)nn2c(C)c1Cc1ccccc1` reads inactive: 71%; that for `Cc1cccc2cc(CNCc3ccco3)c(=O)[nH]c12`, inactive: 105%; that for `O=C(COc1ccc(F)cc1)Nc1ccccc1C(=O)OCc1cc(=O)n2nc(C3CC3)sc2n1`, inactive: 99%.
Consider `CC(NC(=O)c1ccc(Nc2nc3ccccc3n3nnnc23)cc1)c1ccccc1` (stereo not drawn), for which the survival was inactive: 83%.
Then `O=C(CS(=O)(=O)c1cccc2nsnc12)NCc1ccc(Cl)cc1`, with inactive: 152%; and `COc1ccc(-c2c(C)nn3c4c(cnc23)C(=O)CC(c2ccccc2)C4)cc1` (stereo not drawn), with inactive: 97%; and `O=C(O)CCc1ccc(-c2cccs2)[nH]1`, with inactive: 112%.
Regarding `Cc1nc2nc(-c3ccc(Cl)cc3Cl)nn2c(C)c1CCC(=O)Nc1ccc(F)cc1`, the survival was inactive: 98%.
As to `COc1cccc(N2CC(NC(=O)c3ccc4c(c3)OCO4)CC2=O)c1` (stereo not drawn), the survival was inactive: 79%.
As for `CCCCN(C)CCCNC(=O)CN1C(=O)COc2ccc(S(=O)(=O)N3CCOCC3)cc21`, the survival was inactive: 78%.
Regarding `O=C(N1CCOCC1)N1CCC(NC(=O)C23CC4CC(CC(C4)C2)C3)CC1`, the survival was inactive: 107%.
For the compound `CC(=O)c1ccc(NC(=O)C2CCCN(S(=O)(=O)c3ccc4c(c3)CCCN4C(C)=O)C2)cc1` (stereo not drawn), the survival was inactive: 92%.
Then `COc1ccccc1N1CCN(S(=O)(=O)c2c(C)sc3ncn(CC(=O)Nc4ccc(C(F)(F)F)cc4)c(=O)c23)CC1`, with inactive: 88%.
The result for `Cc1cc(C)c(NC(=O)CCCN2C(=O)COc3ccc(C)cc32)c(C)c1` reads inactive: 116%.
For the compound `CCCCn1c(=O)c(C(=O)OCC)c(O)c2ccccc21`, the survival is inactive: 100%.
As for `COc1ccc(CCNC(=O)CN(c2cc(C(F)(F)F)ccc2Cl)S(C)(=O)=O)cc1`, the survival was inactive: 68%.
Then `Cc1ccc(OCC(=O)Nc2ccccc2C(=O)OCc2cc(=O)n3ccsc3n2)cc1C`, with inactive: 72%; and `CCc1ccc(NC(=O)c2cc3nc(-c4ccc(C)cc4)cc(C(F)(F)F)n3n2)cc1`, with inactive: 60%; and `COC(=O)c1sc(NC(=O)c2cc3nc(-c4ccc(Br)cc4)cc(C(F)(F)F)n3n2)c(C(=O)OC)c1C`, with inactive: 49%.
Then `O=C(O)Cc1sc(Nc2ccccc2Cl)nc1-c1ccccc1`, with inactive: 63%; and `CCOC(=O)c1c(NC(=O)Cc2coc3cc(C)ccc23)sc2c1CCCC2`, with inactive: 107%.
Then `O=C(Cn1ccc2cc(S(=O)(=O)N3CCCCC3)ccc21)NCCc1ccc(Cl)cc1`, with inactive: 73%.
Take `CCOC(=O)c1cc(S(=O)(=O)N2CCN(c3cc(C)ccc3C)CC2)[nH]n1`: the survival is inactive: 90%.
The result for `Cc1cccc(C)c1N1CC(c2nc3ccccc3n2CC(=O)OC(C)C)CC1=O` (stereo not drawn) reads inactive: 85%; that for `COc1ccccc1Nc1nn2c(=O)c3ccc(C(=O)N4CCCCC4)cc3nc2s1`, inactive: 70%.
Then `CCC1=NN(C(=O)COc2ccccc2C)C(O)(c2ccncc2)C1` (stereo not drawn), with inactive: 107%.
The result for `COc1ccc(NC(=O)CSc2nc3cc(OC)c(OC)cc3c3nc(-c4ccccc4)nn23)cc1Cl` reads inactive: 129%.
Turning to `CCCN(CCC)C(=O)CSc1nc2ccccc2c(=O)n1Cc1ccco1`, the survival is inactive: 72%.
Then `COc1ccc(CC(=O)NCc2nc3cccnc3n2Cc2ccc(C)cc2)cc1`, with inactive: 69%.
`COc1cc(-c2ccno2)ccc1S(=O)(=O)N1CCN(c2ccccc2F)CC1`: the survival is inactive: 81%.
On to `COC(=O)c1ccc(NC(=O)C(=O)NCCc2sc(-c3cccc(F)c3)nc2C)cc1`, for which the survival was inactive: 68%.
In the case of `CC1CCN(S(=O)(=O)c2cc3c4c(c2)CC(=O)N4CCC3)CC1`, the survival is inactive: 75%.
The result for `CC1CCCCN1C(=O)C12CCC(C)(C(=O)C1)C2(C)C` (stereo not drawn) reads inactive: 97%; that for `Cc1ccc(-c2c(C)n3c4c(=O)n(C)c(=O)n(C)c4nc3n2-c2cccc(O)c2)cc1`, inactive: 129%.
On to `Fc1ccc(-c2cc(-c3ccccc3)c3c(n2)-c2cc(F)ccc2OC3)cc1`, for which the survival was inactive: 104%.
With `Cc1cc(C)cc(NC(=O)CSc2oc(-c3cccs3)nc2S(=O)(=O)c2ccccc2)c1`, the survival was inactive: 147%.
Then `CCC1CCCCN1C(=O)CSc1ncc(-c2ccc(F)cc2)n1CC` (stereo not drawn), with inactive: 104%.
The result for `COc1ccc(S(=O)(=O)NCC(c2ccco2)N2CCOCC2)cc1` (stereo not drawn) reads inactive: 135%; that for `CN(C)S(=O)(=O)c1ccc2c(c1)nnn2CCNC(=O)Nc1ccc(Br)cc1`, inactive: 59%.
Regarding `Cn1c(=O)c2c(nc(NCc3ccccc3)n2Cc2ccccc2Cl)n(C)c1=O`, the survival is inactive: 72%.
Regarding `O=C(C1CC1)N1CCN(c2nc3ccc(F)cc3s2)CC1`, the survival was inactive: 128%.
As to `COc1cccc(OCc2nc3ccccc3n2CCOc2ccccc2C)c1`, the survival was inactive: 55%.
With `CCCCOc1ccc(CNC(=O)c2cnc3sc(N4CCOCC4)nn3c2=O)cc1`, the survival is inactive: 97%.
With `O=C(CCn1ccc2cc(S(=O)(=O)N3CCCC3)ccc21)NCc1cccc(Br)c1`, the survival is inactive: 131%.
On to `COc1ccc(CCNC(=O)CCCCn2c(=O)c3ccccc3n(Cc3ccc(F)cc3Cl)c2=O)cc1OC`, for which the survival was inactive: 90%.
As to `Cc1ccc(-c2nc3ncccc3o2)cc1NC(=O)c1cccc(OCC(C)C)c1`, the survival is inactive: 74%.
For `Cc1ccc(C(=O)NCC(c2cccnc2)N2CCc3ccccc32)cc1C` (stereo not drawn), the survival is inactive: 78%.
Then `Cc1ccc(C)c(Nc2nn3c(=O)c4ccc(C(=O)NC5CCCCC5)cc4nc3s2)c1`, with inactive: 73%.
Then `Cc1c(C)n(Cc2ccccc2)c2ccc(C(=O)NCc3ccco3)cc12`, with inactive: 70%; and `CCc1ccc(NC(=O)Cn2c(=O)n(CCC(=O)NCc3ccc4c(c3)OCO4)c(=O)c3ccccc32)cc1`, with inactive: 110%; and `Cc1cc(NC(=O)c2cc(-c3ccc(Cl)cc3)on2)nn1Cc1ccc(Cl)cc1`, with inactive: 145%.
Then `CCC1CN(C(=O)Nc2cc(C)cc(C)c2)c2ccccc2O1` (stereo not drawn), with inactive: 85%; and `O=C(O)c1ccc(CSc2nnc(-c3ccncc3)n2CC2CCCO2)cc1` (stereo not drawn), with inactive: 94%; and `Cc1c(-c2nsc(NC(=O)c3cccs3)n2)nnn1-c1ccc(Br)cc1`, with inactive: 90%.
For `Cc1cccc(CN2CCc3nc(N4CCN(c5ccccn5)CC4)ncc3C2)c1`, the survival was inactive: 79%.
